Laboratory results published in the supplement of paper PMC10126150.
Sequences with one replicate were seen in a single cluster, so their values are uncertain.

System: ATP
Assay: switch fluorescence ratio, 500 uM ATP over buffer (Cy3 cluster intensity, sum of 5 cycles each) (fold (ratio)); higher = stronger signal-on switching upon ATP binding; sequences stand for … in TCGTCGGCAGCGTCAGATGTGTATAAGAGACAGTTTTTTTTTTTTTTTTTTTTTTTTT…TC
Settings: aptamer strand: ATP DNA aptamer (quencher-CACCTGGGGGAGTATTGCGGAGGAAGG + anchor), 100 nM annealed; ATP concentration: 500 uM; one replicate
Procedure, shortened: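 The fluorescence ratio divides summed target-cycle Cy3 intensity by summed buffer-cycle Cy3 intensity for each cluster and is averaged per switch-domain sequence. Cy3-labelled switching-strand clusters on a modified Illumina MiSeq flow-cell were annealed to 100 nM quencher-labelled ATP aptamer, then imaged in selection buffer and again after 15 min with 500 uM ATP at 22 °C. Five such cycles were run, with NaOH stripping and re-annealing between them, and clusters outside 100-1000 RFU were excluded.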
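Also: ATP exposure 15 min at 22 °C before imaging.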

Sequence	switch fluorescence ratio
CTCGACTTGC	1.08
CTCGAGAAGG	1
CTCGAGCGAA	1.33
CTCGATTTTC	1.03
CTCGCAAAAT	2.6
CTCGCACGCC	1.64
CTCGCCGTGG	0.999
CTCGCGCTTC	1.98
CTCGCTTGTG	1.01
CTCGGACCAA	1.25
CTCGGACTGC	1.12
CTCGGATACG	0.894
CTCGGATTTA	0.983
CTCGGCAAAT	5.57
CTCGGCCAAA	1.37
CTCGGGAAAT	0.999
CTCGGGCAAT	4.01
CTCGGGGAAG	0.985
CTCGGGGCTC	1.06
CTCGGGGGCC	1.05
CTCGGGTCAA	1.24
CTCGGGTTCG	0.97
CTCGGTAGT	0.994
CTCGGTCGGT	0.988
CTCGTACACC	1.06

Sequence	switch fluorescence ratio
CTCGTATCGT	0.99
CTCGTCAAGG	1.11
CTCGTCAATG	1.49
CTCGTGCCTG	0.994
CTCGTGGCTA	0.997
CTCTAAGGG	1.08
CTCTAAGGGA	0.986
CTCTAGCTTA	1.27
CTCTAGTATT	1.01
CTCTATCATT	1.01
CTCTATGTTC	1
CTCTCACTCA	1.05
CTCTCGGTCA	1.05
CTCTGGCCTA	1.02
CTCTGTAGC	1.35
CTCTGTCTCT	1.02
CTCTGTTTAT	1.06
CTCTTATGGC	1.02
CTCTTCTTAT	0.993
CTCTTGATAG	1.04
CTCTTTAGCA	1.22
CTCTTTCCTG	1.02
CTCTTTGCTA	1.1
CTCTTTTAGT	1
CTCTTTTCGG	0.988

Sequence	switch fluorescence ratio
CTGAAACTTT	1.06
CTGAAATGGA	1
CTGAACAGGT	0.967
CTGAAGGGTA	1.03
CTGAAGTGTG	1.03
CTGAATAGAT	1.05
CTGACATGGG	1
CTGACATTCA	1.05
CTGAGATAAA	1.02
CTGAGCACA	2.21
CTGAGCAGCG	1.11
CTGAGCAGGC	0.947
CTGAGCGAAA	1.17
CTGAGCTCGT	1.04
CTGAGGAACG	0.988
CTGAGGAACT	0.981
CTGAGGATTT	1.01
CTGAGGCTTT	2.41
CTGAGTGCTG	0.967
CTGAGTTGAA	0.981
CTGATAAAAC	1.04
CTGATAACTT	1.03
CTGATAATAG	1.05
CTGATCCACG	1.07
CTGATCGAAG	1.03

Sequence	switch fluorescence ratio
CTGATCGCAG	5.78
CTGATGGGC	1.06
CTGATTAAGC	0.997
CTGATTCATG	0.976
CTGATTCGC	1.11
CTGATTGGAG	0.989
CTGATTTCGG	1.1
CTGATTTTCG	1.04
CTGCACAAGC	1.33
CTGCACCGCG	0.995
CTGCACGCAG	1.09
CTGCACGGCG	0.992
CTGCACTACC	3.21
CTGCATAAG	1.17
CTGCATAGTC	1.94
CTGCATTTTG	1.02
CTGCCAACGA	1.07
CTGCCAATCT	1.2
CTGCCAGGGG	1.01
CTGCCCAGGG	2.41
CTGCCCCTTC	1.03
CTGCCCGAAT	0.956
CTGCCGAAGG	1.01
CTGCCGCTTG	1.16
CTGCCGGGCC	0.987

Sequence	switch fluorescence ratio
CTGCCGGTTT	0.989
CTGCGAACTT	1.03
CTGCGATCGC	0.995
CTGCGATGAC	2.89
CTGCGCGTC	1.17
CTGCGGAACT	1.08
CTGCGGCTTA	1.04
CTGCGGTGTG	0.998
CTGCGTGGAT	1.03
CTGCTAATAG	1.83
CTGCTATCTT	1.08
CTGCTCCTAC	1.67
CTGCTCGT	1.17
CTGCTTTTCA	1.03
CTGGAAATAT	1
CTGGAACTGA	1
CTGGAATATG	1.18
CTGGACAGGG	0.987
CTGGACATTA	1.03
CTGGACGCT	1.11
CTGGATCATT	0.993
CTGGATTAGG	1
CTGGATTCCC	1.03
CTGGCACTTT	0.985
CTGGCAGATG	1.02

Sequence	switch fluorescence ratio
CTGGCCAGGG	0.991
CTGGCCCGT	0.995
CTGGCCCGTA	1.01
CTGGCCGTGG	0.985
CTGGCCTACT	1.02
CTGGCGCCGT	0.994
CTGGCGTCTT	1.04
CTGGCTGTGG	0.984
CTGGCTTCC	2.22
CTGGGAAGCC	0.962
CTGGGAATGA	1.02
CTGGGCAAAT	1.25
CTGGGCCGAA	1.06
CTGGGCGCC	1.03
CTGGGGAGTT	0.949
CTGGGTAGC	0.997
CTGGGTGTAA	1.01
CTGGTAACAA	1.05
CTGGTAGTTA	1.03
CTGGTATGAG	0.931
CTGGTGAGGT	1
CTGGTGATGG	1.02
CTGGTGCAAG	1.33
CTGGTTATTA	1.03
CTGGTTCGGA	1.05

Sequence	switch fluorescence ratio
CTGGTTGAGA	1
CTGGTTGGTG	1.1
CTGTAAAATG	1.02
CTGTAGCGTA	1.15
CTGTATAATC	1.04
CTGTATACCG	1.04
CTGTATTCTC	1.02
CTGTATTGCC	0.924
CTGTCAAAGT	0.988
CTGTCGCGGC	1.08
CTGTGAACCA	1.02
CTGTGAGAGT	0.976
CTGTGATACG	1.85
CTGTGATGAT	0.954
CTGTGCCGCC	1.03
CTGTGCTGTT	1
CTGTGCTTCT	1.01
CTGTTAGGAA	0.952
CTGTTATATC	1.04
CTGTTATATT	1.06
CTGTTATTCC	0.993
CTGTTCAGGT	1
CTGTTCGTCG	1
CTGTTCTACA	0.987
CTGTTGAAGA	0.956

Sequence	switch fluorescence ratio
CTGTTGCCTC	1.02
CTGTTGCGCT	1.04
CTGTTTATAG	0.988
CTGTTTGAGT	0.971
CTTAACTATA	1.03
CTTAAGCCTT	1.09
CTTAATACTA	1.01
CTTAATATGG	1.08
CTTAATTTAT	1.03
CTTACACCAT	1.06
CTTACATGCT	0.965
CTTACCATGT	0.964
CTTACCGGTT	1.02
CTTACGAA	1.04
CTTACGCCCA	1.1
CTTACTCAAG	1.06
CTTAGAAATC	1.01
CTTAGCTCGC	1.07
CTTAGGAAGG	1.03
CTTAGGATCC	0.967
CTTAGGTCTA	0.992
CTTAGGTTGG	0.994
CTTAGTAACT	1
CTTAGTCCAA	1.06
CTTAGTTCAG	1.03
